We go through 3 compounds from PubChem BioAssay (Tox21).

Records with an inconclusive call do not appear. Calls follow the shape of the dose curve; as a rule, active = well fitted activation curve with a large enough effect in the repeat runs; inconclusive = weak or mixed curves; inactive = flat fitted curve, though single readings scatter. Some compounds were tested as several samples or in several runs, with calls that do not always agree. Some entries of the source have several records that differ or are many. This is not the full list of results. An entry can have further records. The values listed for one entry are repeats across runs, samples, wells, individuals or studies. A tag in brackets gives the origin of a value. A, B and so on number the origins entry by entry.
Potency is read from the fitted curve at half-maximal effect.

This assay is described as follows: A CellTox Green Cytotoxicity Assay to monitor cytotoxicity in HEK293 cells - 16 hour (AID 1224888). Also: nearly all actives have a fitted effect of over 35% in size. The following applies: CellTox Green fluorescence; series mostly up to 76.8 µM. The method, boiled down:
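Read-out: fluorescence of a cell-impermeant cyanine dye staining DNA of dead cells, proportional to cytotoxicity. HEK293, 600 cells/well with reagent, compound (23 nL DMSO) added after 5 h; reads at 0, 8, 16, 24, 32, 40 h.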
With `CC(O)CN(CCN(CC(C)O)CC(C)O)CC(C)O` (stereo not drawn), the Potency result is “inactive [sample A] and inactive [sample B] and active: 2.39 µM [sample C]”.
On to `c1ccc2[nH]ccc2c1`, for which the Potency entry is “active: 19.2 µM [sample A] and inactive [sample B] and inactive [sample C]”.
To `Cc1cc(=O)n(-c2ccccc2)n1C` belongs “active: 40 µM [sample A] and inactive [sample B] and inactive [sample C]”.
